About 5,000 (1.2%) of roughly 410,000 compounds were called active. The shares of active, inactive and inconclusive entries below differ from those in the screen. The call rests on the fitted dose curve; in most records, active means well fitted inhibition curve with a large enough effect; inconclusive means small, poorly fitted or top-dose-only effect; inactive means no such curve, though single readings can be large or run the other way. Potencies beside an inconclusive call are fits to weak or partial responses and may not hold up.
Test: qHTS for Inhibitors of TGF-b; further: nearly all actives have a fitted effect of over 65% in size
Details: HepG2 CAGA-GFP TGF-b/SMAD3 reporter, GFP fluorescence, 18 h, TGF-beta stimulated, 500 pg/mL final; series mostly up to 46.1 µM
Summary of the method: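 Using HEPG2 CAGA-GFP reporter cells at 1000 cells/well, we pinned test compounds, stimulated with recombinant TGF-beta (500 pg/mL final) and measured total well GFP after 18 h.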
In the case of `COc1cc(Nc2nc3ccccc3nc2NS(=O)(=O)c2ccc([N+](=O)[O-])cc2)cc(OC)c1OC`, the Potency is reported as inconclusive: 35.5 µM [inhibitor, single point].
For `CCC(=O)Nc1cccc(NC(=S)NC(=O)c2ccccc2C)c1`, the Potency was inconclusive: 25.1 µM [inhibitor, single point].
With `O=C(CSc1ccc(F)cc1)Nc1ccc(Br)cc1` the Potency was inconclusive: 7.08 µM [inhibitor, partial curve, poor fit].
In the case of `CN(C)CCCNC(=S)NCCNc1nc2cc3c(cc2cc1C#N)OCO3`, the Potency is reported as inconclusive: 28.2 µM [inhibitor, single point].
In the case of `Cc1ccc(NC(=O)CCC(=O)N2CCSc3ccccc32)cc1`, the Potency is reported as inconclusive: 3.55 µM [inhibitor, partial curve, poor fit].
For `O=C(NCc1ccc(C(F)(F)F)cc1)C1CC(c2cccc(F)c2)=NO1` (centres undefined), the Potency was “inactive”.
In the case of `C[C@@H](C(=O)O)[C@H]1C[C@]1(C)[C@H](NC(=O)OCc1ccccc1)c1ccccc1`, the Potency is reported as inconclusive: 4.47 µM [inhibitor, full curve, poor fit].
In the case of `Cc1cnc2c(c1SCC(=O)NCc1ccccc1Cl)c(=O)n(C)c(=O)n2C`, the Potency is reported as inconclusive: 1.26 µM [inhibitor, full curve, poor fit].
In the case of `Cc1ccc(NC(=O)c2ccc3c(c2)OCCO3)cc1S(=O)(=O)Nc1cccc(Cl)c1`, the Potency is reported as inconclusive: 35.5 µM [inhibitor, single point].
For `O=S(=O)(CCNCc1ccco1)NC1CCCCC1`, the Potency was “inactive”.
In the case of `Cc1nn(CC2CC2)c(=O)n1-c1ccccc1`, the Potency is reported as inconclusive: 5.62 µM [inhibitor, single point].
For `O=C(c1cccc(Cl)c1)N1CCN(c2ccc3c(c2)C2CC3CCN2C(=O)OCc2ccccc2)CC1` (centres undefined), the Potency was active: 11.2 µM.
In the case of `C=C(C)C(O)CC/C(C)=C/Cc1c(O)ccc(C(=O)/C=C/c2ccc(O)cc2)c1O` (centres undefined), the Potency is reported as inconclusive: 17.8 µM [inhibitor, single point].
In the case of `Cc1ccc(OCC(O)CN2CCOCC2)cc1` (centres undefined), the Potency is reported as “inactive”.
With `Cc1cc(C)cc(NC(=O)CN2C(=O)NC(C)(c3ccccc3)C2=O)c1` (centres undefined) the Potency was “inactive”.
In the case of `Cc1cc(C)c2c(n1)NCCC2`, the Potency is reported as inconclusive: 7.94 µM [inhibitor, partial curve].
For `COC(=O)C=CC(=NNc1ccccc1)c1ccccc1`, the Potency was inconclusive: 35.5 µM [inhibitor, single point].
With `Cc1nnc(Sc2cc(NCCCO)c([N+](=O)[O-])c3nonc23)s1` the Potency was active: 5.01 µM.
For `Cc1ccc(Nc2nc(-c3cccnc3)nc3ccccc23)cc1`, the Potency was inconclusive: 22.4 µM [inhibitor, single point].
Potency means the concentration at half of the fitted maximal effect; tags describe the fitted curve by direction and shape.
